The list shows a part of the results. Many values rest on one well or one pass, so single values are uncertain.
System: Candida albicans DPL-15
Assay: growth (OD600) after compound treatment (apparently relative to screen median) (relative growth (fraction; screen median 1.02)); DPL-15 is a caspofungin-resistant clinical isolate; higher = more fungal growth (less antifungal activity)
Settings: 25 µM; RPMI 1640; 48 h; 30 °C

Structure (SMILES)	growth
CNc1cccc(OC)c1C(=O)OCC(=O)c1ccc(Br)cc1	1.05
CC1=NCCNC2=C1C(c1cccc(C(F)(F)F)c1)N(c1ccccc1)C2=O (stereo unspecified)	1
COC(=O)C/C=C/[C@@H](C)[C@@H](c1ccccc1)N1C[C@@]2(O)CC[C@@H](O)[C@@H](OC)[C@@H]2[C@@]1(C)[C@H](O)CC=C(C)C	1.12
CC[C@@H](O)COc1cc2c(cc1C1(c3cc4c(cc3OC[C@H](O)CC)OCO4)C(=O)Nc3cccc(Br)c31)OCO2	0.958
CCCCCN(C(=O)OC(C)(C)C)S(=O)(=O)NC(C)(C)C	1.18
CCOC(=O)c1cc2c(nc1C(=O)OCC)c(=O)nc1[nH]c(C)cc(=O)n12	1.2
COC(=O)c1c(O)cc(C)c2c(OC)c(OC)ccc12	1.05
COC(=O)C(C(=O)OC)c1ccccc1[N+](=O)[O-]	0.986
C=CCN1C(=O)C2=C(C(CC(C)C)=NCCN2C)C1c1ccc(C)cc1 (stereo unspecified)	1.06
CCCN1C(NCc2ccccc2)=NC(c2ccc(F)cc2)C(C(=O)OC)=C1C (stereo unspecified)	1.05
COc1ccc(N2C(=O)C3=C(C(CC(C)C)=NCC(C)(C)N3)C2c2ccc(Br)cc2)cc1 (stereo unspecified)	0.933
CCC/C=C/C1=C(CO)C2(OCC(CC)(CC)CO2)[C@H]2O[C@H]2C1=O	0.961
CC1=CC2=CC(=O)C=C[C@]2(O)[C@@H]2CCC3(OCCO3)[C@@]2(O[Si](C)(C)C)C1	0.956
C[C@@H]1C2=C(CCO[C@@H]2c2ccccc2)N[C@@H]1c1ccccc1	1.15
COC(=O)C/C=C/[C@H](C)[C@@H](NC(=O)[C@H](C)NC(=O)OC(C)(C)C)c1ccccc1	1.03
O=C(c1ccccc1)N1CCc2nc(-c3ccccc3)c(-c3ccccc3)cc2C1	1.09
COc1cc(CC=C(C)C)c2c(=O)oc(-c3ccccc3)cc2c1O	0.94
Cc1nn(-c2ccc(OC(F)(F)F)cc2)c2c1C(c1ccccc1)NC2=O (stereo unspecified)	1.05
Cc1cc(F)ccc1C1c2c(CC(C)C)n[nH]c2C(=O)N1c1ccc(-n2ccnc2)cc1 (stereo unspecified)	1.02
COc1ccc([C@@H]2[C@@H](C(=O)NC3CCCCC3)[C@@H](C(=O)NC3CCCCC3)[C@@H]2c2ccc(OC)c(OC)c2)cc1OC	0.823
COC(=O)[C@@]1(/C=C/[C@@H](C)[C@H](OC)c2ccccc2Br)[C@@H]2OCCC[C@@H]21	1.15

Structure (SMILES)	growth
COCCNC(N)=S	1.34
COCCN1C(NCc2ccccc2)=NC(c2ccccc2)C(C(=O)OC)=C1C (stereo unspecified)	1.13
CS(=O)(=O)Oc1c(CC23CCCCCCC2=Nc2ccccc23)occc1=O (stereo unspecified)	1.2
COc1ccc(OC[C@@H]2C=C(C)C[C@]3(O2)C(=O)Nc2cc(F)ccc23)cc1	0.889
CC1=Cc2cc(O)ccc2[C@@H]2C=CC(=O)[C@H]2C1	0.906
C#CCC(C)(C)CNC(=O)CC1(CNC(=O)c2cccc(COC(C)C)c2)CCCCC1	1.16
CCO[C@H]1CCN(C(=O)c2c(O)cc(O)cc2Nc2cnn(C)c2)C1	1.1
COC(=O)c1nnc(C(=O)OC)c2[nH]c(/N=C/N(C)C)nc12	1.04
CC(=O)C1=C(C)N(Cc2ccccc2Cl)C(=S)NC1c1cccc(Cl)c1 (stereo unspecified)	0.977
COc1cc(CNC(=O)CCCC/C=C/C(C)C)ccc1O	0.975
CC(C)Cc1n[nH]c2c1C(c1c(Cl)cccc1Cl)N(c1ccc(N(C)C)cc1)C2=O (stereo unspecified)	0.953
C#CCOc1ccccc1CNC(=O)OC(C)(C)C	0.979
COC(=O)C/C=C/[C@H](C)[C@H](NC(=O)C(F)(F)F)c1ccccc1	1.01
CC(C)Cc1n[nH]c2c1C(c1ccc(F)cc1)N(c1ccc(Br)cc1)C2=O (stereo unspecified)	0.969
Nc1c(-c2ccc(F)nc2)cnc2c(-c3ccc(F)cc3)cnn12	1.15
CC[C@@H](O)COc1cc2c(cc1C1(c3cc4c(cc3OC[C@H](O)CC)OCO4)C(=O)Nc3cc(Br)ccc31)OCO2	0.839
CN(C)CCn1cc(Nc2cc(O)cc(O)c2C(=O)N2CC[C@H](F)C2)cn1	1.17
COc1cc(OC)c2c(=O)c3c(CC=C(C)C)ccc(O)c3oc2c1	0.943
CC(C)Cn1nc(-c2ccccc2)cc1Nc1cc(O)cc(O)c1C(=O)N1Cc2cccnc2C1	0.804
COc1ccccc1Cn1nc(C)c2c1C(=O)NC2c1ccc(Br)cc1 (stereo unspecified)	1.02
CCC(CC)[C@@H]1N=C2C[C@H](c3ccccc3)[C@@H](C)[C@@H]3C[C@@]2(O1)N(Cc1ccccc1)C3=O	0.908

Structure (SMILES)	growth
COCOC1CCC(=O)C(C(=O)OC)=C1Oc1cc(O)cc(OC)c1 (stereo unspecified)	0.984
C#Cc1cc(O)c2c(=O)c3ccccc3oc2c1	1.06
CN1c2ccccc2[C@]23CCC[C@]12Oc1c(occc1=O)C3	0.862
COCOC1CCC(=O)C(C(=O)OC)=C1Oc1cc(OC)cc(OC)c1 (stereo unspecified)	1.03
OC[C@H]1O[C@H](C#Cc2ccccc2)C=C[C@@H]1O	1.05
O=S(=O)(NC1CCCCC1)OCCCc1ccccc1	1.17
COC(=O)C1=C(C)NC(=O)NC1c1ccc(F)cc1 (stereo unspecified)	1.01
COc1ccc(N2C(=O)C3=C(C(C)=NCC(C)(C)N3)C2c2cccc(C(F)(F)F)c2)cc1 (stereo unspecified)	0.935
CC(C)=CCc1cc(OCC(=O)O)cc2oc3cccc(O)c3c(=O)c12	1.21
COc1ccccc1Cn1nc2c(c1CC(C)C)C(c1ccc(C)cc1)NC2=O (stereo unspecified)	0.908
CCCCN(Cc1ccccc1)CC1CCCN(CCc2ccccc2)C1 (stereo unspecified)	0.988
CC(C)C1=C[C@H]2[C@H]3Cc4ccccc4[C@H]3[C@@H]1[C@@H](O)[C@]2(C)O	0.929
CC(C)(C)C[C@@H](O)COc1cc2c(cc1C1(c3cc4c(cc3OC[C@H](O)CC(C)(C)C)OCO4)C(=O)Nc3cc(F)ccc31)OCO2	0.955
COC(=O)[C@@H]1[C@H](C(=O)NC2CCCCC2)[C@@H](c2ccccc2)[C@H]1c1ccccc1	1.09
O=c1c2cccc(O)c2oc2cc(O)cc(O)c12	0.695
CCCCCC[C@]12Cc3cc(OC)c(OC)cc3[C@@H](O1)c1c(c3ccccc3n(C)c1=O)O2	0.93
COC(=O)C1=C(C)N(CCCOC(C)C)C(=S)NC1c1ccc(C)cc1 (stereo unspecified)	1.28
CC(C)[C@@H]1NC(=O)C[C@@H]2C[C@H](C)[C@H](c3ccccc3)N2C1=O	1.07
COc1ccc([C@@]23Oc4cc(OC)cc(OC)c4[C@]2(O)[C@H](O)[C@H](C(=O)NCCCC(OC)OC)[C@H]3c2ccccc2)cc1	1.02
COc1ccc(Cn2ccc(N)n2)cc1	1.01
CC(C)NC(=O)OC[C@H]1O[C@H](C#Cc2ccc(C(C)(C)C)cc2)C=C[C@H]1O	0.999

Structure (SMILES)	growth
COc1ccc(Cn2nc(-c3ccccc3)cc2Nc2cc(O)cc(O)c2C(=O)N(C)Cc2ccon2)cc1	1.05
COc1ccc([C@@]23Oc4cc(OC)cc(OC)c4[C@]2(O)[C@H](O)[C@H](C(=O)N(C)OC)[C@H]3c2c(F)c(F)c(F)c(F)c2F)cc1	1.06
COc1ccc(N2C(=O)c3[nH]nc(CC(C)C)c3C2c2ccccc2Cl)cc1 (stereo unspecified)	0.987
CCNC(=O)[C@H]1[C@H](C(=O)NCC)[C@@H](c2ccc(OC)c(OC)c2)[C@@H]1c1ccc(OC)c(OC)c1	1
COc1cc(/C=C/c2cc(/C=C/c3ccc(O)c(OC)c3)nc(N)n2)ccc1O	1.01
COc1ccc(N2C(=O)C3=C(C(CC(C)C)=NCCN3)C2c2cccc(C(F)(F)F)c2)cc1 (stereo unspecified)	1.02
COc1cc(/C=C/C(=O)/C=C(O)/C=C/c2ccc(O)c(OC)c2)ccc1O	active: 0.205
COc1ccc(N2C(=O)c3[nH]nc(CC(C)C)c3C2c2ccc(C(=O)O)cc2)cc1 (stereo unspecified)	0.857
CCOC(=O)COc1ccc(CC=C(C)C)c2c(=O)c3ccccc3oc12	1.08
CC(=O)C1=C2C=CCCN2C(=O)NC1c1c(F)cccc1Cl (stereo unspecified)	1.1
COc1ccc([C@@]23Oc4cc(OC)cc(OC)c4[C@]2(O)C(=O)[C@H](C(=O)NCCCC2(C)OCCO2)[C@H]3c2ccccc2)cc1	0.73
CCCCCOS(=O)(=O)Nc1ccc(C(C)(C)C)cc1	1.08
C=C(C)[C@@H]1CC[C@]2(COC(C)=O)CC[C@]3(C)[C@H](CC[C@@H]4[C@@](C)(CCC=O)[C@H](C(C)=O)CC[C@]43C)[C@@H]12	1.12
FC(F)(F)c1ccccc1CN1CCCc2nc(-c3ccc(Br)cc3)ccc21	active: 0.113
Cc1ccc(S(=O)(=O)Oc2c(CC34CCCCC3=Nc3ccc(F)cc34)occc2=O)cc1 (stereo unspecified)	1.03
C=CCC(CCc1ccccc1)Nc1ccc(OC)cc1OC (stereo unspecified)	1.04
CCOC(=O)N1c2ccccc2C=CC1/C=C/c1cccc(F)c1 (stereo unspecified)	1.08
CO[C@H](c1ccccc1Br)[C@H](C)[C@H]1C=C(C(=O)O)[C@@H]2Oc3ccccc3[C@H]12	1.13
